Test results as given in the supplement of paper PMC10126150.
Values marked as one replicate rest on one cluster of the flow cell; about a third of the high ones do not repeat.

System: ATP
Experiment: switch fluorescence ratio, 500 uM ATP over buffer (Cy3 cluster intensity, sum of 5 cycles each) (fold (ratio)); higher = stronger signal-on switching upon ATP binding; sequences stand for … in TCGTCGGCAGCGTCAGATGTGTATAAGAGACAGTTTTTTTTTTTTTTTTTTTTTTTTT…TC
Conditions: aptamer strand: ATP DNA aptamer (quencher-CACCTGGGGGAGTATTGCGGAGGAAGG + anchor), 100 nM annealed; ATP concentration: 500 uM; one replicate
Outline: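 Five buffer/ATP imaging cycles were run on Cy3-labelled switching-strand clusters on a modified Illumina MiSeq flow-cell, with NaOH stripping and re-annealing between cycles. In each cycle, clusters annealed to 100 nM quencher-labelled ATP aptamer were imaged in selection buffer, then after 15 min with 500 uM ATP at 22 °C. Per cluster, the fluorescence ratio is summed target-cycle over summed buffer-cycle Cy3 intensity, averaged per switch-domain sequence. Only clusters within 100-1000 RFU were kept.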
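Note: ATP exposure 15 min at 22 °C before imaging.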

Sequence	switch fluorescence ratio
TACGCATTCA	1.21
CTGTTAAACC	1.04
GCGGAAGTTT	0.972
TCGATGGCGT	1.04
ATATTTCTGC	1.07
GGCCTGCTGC	0.999
GTTAATACTG	0.934
AATAAATAGT	1.02
GGTGCTTAA	1.04
AAAGCTCGGT	1.04
GTTGAAAGTG	1.13
GGGGCAAAA	1
CCTTGGATGG	0.994
GTTTCTAGGG	1.02
TTGCGGTTTG	0.984
GGCCCGTAGC	1.13
GTGAGAAGGC	0.945
ATCTAGGAGG	0.977
TTGTGACTCC	1.09
TTACAAATAT	1.06
TAATTCTATA	1.01
GACATGCGG	1.07
ATCGTGTTTT	0.978

Sequence	switch fluorescence ratio
GCCAGGTTGT	1.5
AGGCCATTTG	1.03
TAGTTTTGC	1.02
GAGATGATGG	1.02
GAGCTGGAAA	1.02
TCTCCCCAGG	2.34
CCGATTTAGA	1.58
ATGGCTCTTA	0.974
TGTAAATTCG	1.02
TTGGGCCTTC	1.02
GCCGGGAGAA	1.27
ATGGTTGTTA	1.07
CGATCACCTT	1.08
AGTTCTGCGC	1.03
TAGGAGGAAG	1.02
TCAGAATGTC	1.14
AGGTGCAAGT	0.991
AGTCTGAGGC	1.02
TCTGAACGGA	1.17
TGGGGTAACG	0.974
TCTCAGGAGG	0.991
TCCCAATCTG	1.08
GTTGCGGTCG	1.05

Sequence	switch fluorescence ratio
ACCAGAGCCC	1.03
TGATTATAGT	1.03
GACAAAAGCT	1.06
TTAGAAACAA	1
TGGAACAGGT	0.985
TGCTACTCTC	1.26
ATGCCGGCTA	1.01
TCCCTGAA	1.04
CGGCTGAGCG	0.907
AGTGATTCTC	1.01
GATGAGCCTT	1.05
TTTCATTAGC	1.04
CTCCAGGCAG	2.65
AGAGTAGTGA	1.02
CAGTTTGCTC	1.03
TTTCCGTACT	1.12
TAGCAAAGGC	1.19
GATGTACGTG	0.99
GTATCAGGGT	0.999
ATGTTTCGAT	0.994
ATAATTGCCA	0.981
CTACAGCGGT	1.13
GATCCTCTCT	1.01

Sequence	switch fluorescence ratio
TTGGAGCATT	1.92
TCTTCATTGA	0.987
GGCCGGGCTT	1.01
GTTAATATTG	0.979
AGACGGTATA	1.11
GAAGACTAGG	1.12
GGCAGTAGCA	0.988
TGTATGAAAG	0.955
ATATTTTCGG	1.01
AACCGGCTGG	0.978
TGGGGTAACT	0.977
TAAATATGGC	0.98
AGCGCGTCA	1.03
GTATGTGAGC	0.972
ACCTTAGTTC	1.03
GACGTCGTGC	1.02
ACAACGTTTG	1
TTTATTTC	0.973
ACAGTTTGTG	1.01
TGGCCATAAG	1.04
CTGTACATAC	2.92
GCTGGATGCT	0.994
CATGCTACCT	1.08

Sequence	switch fluorescence ratio
GTGATGGAGT	0.996
AATAGCTTT	1.01
GCTAGCAAAT	0.973
GAAAAGTTGT	1.03
ATGATCAGCG	0.974
CTGTCCACAA	1.98
TGAGGGAGTT	1.01
CCAAAGCTAT	1.61
GTCTGCTCTT	1.01
AAATTCAGGT	1.06
CACATCGGGT	0.992
TGACTTTCTG	0.961
TAGTCGGATC	0.949
AACTCAGAAT	1.03
CTGCCCGGGT	0.964
AGTTGCTTG	1.04
ATTTAAATGG	1.03
GAAGCGGGCC	1.21
TATTAATAGG	1.03
CACCGGGGGG	1.04
AAGACTTGAC	1.03
CTCTTGGCAC	3.89
GTTACCACAG	1.03

Sequence	switch fluorescence ratio
AAGATGTGGA	1.01
TCCAGATCTG	1.01
GCGGACAAAA	0.971
GTTTGGATTA	1.01
GGGATGGTAA	0.989
GACTTGGACT	1.01
GGCCCCCTTT	1.03
TTCCTTGGCG	1.02
GCTAGAAGAC	1.05
GCGTGGGTG	1.04
TATTAAACTG	1.2
AGTATATTCT	0.965
ACGCAATTAG	7
AAACGTACAA	1.37
AGTAAGTTTC	0.949
AATTTTTTAC	0.994
ACGTCGTGTA	1.01
GCTGTAGGGA	1.02
CCGGGTATGC	2.17
GGTAGATTGA	0.994
ACGGTGCAAA	1.24
GTAAGGGTGG	0.988
CGTATTTGTG	1.02

Sequence	switch fluorescence ratio
ATCAACGGCG	0.945
ACGCCGGAGG	0.987
AGCGTCCTAT	0.993
CGTAGCTTC	3.67
TTGCGCCC	1
GGGTAGCATA	1.01
TTATAGGATT	1.01
AAGCTAAAAA	1.02
TCACGCAATG	3.6
AGGTGATCGC	0.963
CGATGATG	1.02
ACTGTGGGTT	1.03
GTCCTACAGT	1
AGTATGCAGA	0.964
CCCGGATCAT	0.967
CCGTTGGCCC	1.16
TTATATATT	1.02
ACAAACACTA	1.2
ACTCCCCCCA	1.83
